Measured values from the supplement of paper PMC8728848.
This is one part of the list.

Assays:
Assay in all cases: glycan array binding signal (z-score within array); higher = stronger binding
Conditions in all cases: glycan notation: IUPAC condensed, linker removed; mutation: E41G
[1] = molecular target: Neu5Ac(a2-3)Gal(b1-3)GlcNAc(b1-6)GalNAc
Procedure, shortened: (§1)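 The binding signal is a Z-score computed within each array. Data were drawn from 3228 arrays in the Consortium for Functional Glycomics database, restricted to those with a known protein sequence. Scores were averaged over arrays of the same protein sequence at different concentrations or buffers, and over linkers, and negative values can be taken as non-binding.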

[2] = molecular target: Neu5Ac(a2-3)Gal(b1-3)GlcNAc6S
Procedure, shortened: as §1

[3] = molecular target: Neu5Ac(a2-3)Gal(b1-3)[Fuc(a1-4)]GlcNAc
Procedure, shortened: as §1

[4] = molecular target: Neu5Ac(a2-3)Gal(b1-3)[Fuc(a1-4)]GlcNAc(b1-3)Gal(b1-3)[Fuc(a1-4)]GlcNAc
Procedure, shortened: as §1

[5] = molecular target: Neu5Ac(a2-3)Gal(b1-3)[Fuc(a1-4)]GlcNAc(b1-3)Gal(b1-4)[Fuc(a1-3)]GlcNAc
Procedure, shortened: as §1

[6] = molecular target: Neu5Ac(a2-3)Gal(b1-3)[GlcNAc(b1-6)]GalNAc
Procedure, shortened: as §1

[7] = molecular target: Neu5Ac(a2-3)Gal(b1-3)[Neu5Ac(a2-6)]GalNAc
Procedure, shortened: as §1

[8] = molecular target: Neu5Ac(a2-3)Gal(b1-3)[Neu5Ac(a2-6)]GlcNAc(b1-3)[Fuc(a1-3)[Gal(b1-4)]GlcNAc(b1-6)]Gal(b1-4)Glc
Procedure, shortened: as §1

[9] = molecular target: Neu5Ac(a2-3)Gal(b1-3)]Neu5Ac(a2-3)Gal(b1-4)]GlcNAc
Procedure, shortened: as §1

Neu5Ac(a2-3)Gal(b1-4)Glc = molecular target: Neu5Ac(a2-3)Gal(b1-4)Glc
Procedure, shortened: as §1

[10] = molecular target: Neu5Ac(a2-3)Gal(b1-4)GlcNAc
Procedure, shortened: as §1

[11] = molecular target: Neu5Ac(a2-3)Gal(b1-4)GlcNAc(b1-2)Man
Procedure, shortened: as §1

[12] = molecular target: Neu5Ac(a2-3)Gal(b1-4)GlcNAc(b1-2)Man(a1-3)[GlcNAc(b1-4)][Neu5Ac(a2-3)Gal(b1-4)GlcNAc(b1-2)Man(a1-6)]Man(b1-4)GlcNAc(b1-4)GlcNAc
Procedure, shortened: as §1

[13] = molecular target: Neu5Ac(a2-3)Gal(b1-4)GlcNAc(b1-2)Man(a1-3)[Neu5Ac(a2-3)Gal(b1-4)GlcNAc(b1-2)Man(a1-6)]Man(b1-4)GlcNAc(b1-4)GlcNAc
Procedure, shortened: as §1

[14] = molecular target: Neu5Ac(a2-3)Gal(b1-4)GlcNAc(b1-2)Man(a1-3)[Neu5Ac(a2-3)Gal(b1-4)GlcNAc(b1-2)Man(a1-6)]Man(b1-4)GlcNAc(b1-4)[Fuc(a1-6)]GlcNAc
Procedure, shortened: as §1

[15] = molecular target: Neu5Ac(a2-3)Gal(b1-4)GlcNAc(b1-2)Man(a1-3)[Neu5Ac(a2-6)Gal(b1-4)GlcNAc(b1-2)Man(a1-6)]Man(b1-4)GlcNAc(b1-4)GlcNAc
Procedure, shortened: as §1

[16] = molecular target: Neu5Ac(a2-3)Gal(b1-4)GlcNAc(b1-2)[Neu5Ac(a2-3)Gal(b1-4)GlcNAc(b1-4)]Man(a1-3)[GlcNAc(b1-4)][Neu5Ac(a2-3)Gal(b1-4)GlcNAc(b1-2)[Neu5Ac(a2-3)Gal(b1-4)GlcNAc(b1-6)]Man(a1-6)]Man(b1-4)GlcNAc(b1-4)GlcNAc
Procedure, shortened: as §1

[17] = molecular target: Neu5Ac(a2-3)Gal(b1-4)GlcNAc(b1-2)[Neu5Ac(a2-3)Gal(b1-4)GlcNAc(b1-4)]Man(a1-3)[GlcNAc(b1-4)][Neu5Ac(a2-3)Gal(b1-4)GlcNAc(b1-4)Man(a1-6)]Man(b1-4)GlcNAc(b1-4)GlcNAc
Procedure, shortened: as §1

[18] = molecular target: Neu5Ac(a2-3)Gal(b1-4)GlcNAc(b1-2)[Neu5Ac(a2-3)Gal(b1-4)GlcNAc(b1-6)]Man(a1-6)[Neu5Ac(a2-3)Gal(b1-4)GlcNAc(b1-2)Man(a1-3)][GlcNAc(b1-4)]Man(b1-4)GlcNAc(b1-4)GlcNAc
Procedure, shortened: as §1

[19] = molecular target: Neu5Ac(a2-3)Gal(b1-4)GlcNAc(b1-3)Gal
Procedure, shortened: as §1

[20] = molecular target: Neu5Ac(a2-3)Gal(b1-4)GlcNAc(b1-3)Gal(b1-3)GlcNAc
Procedure, shortened: as §1

[21] = molecular target: Neu5Ac(a2-3)Gal(b1-4)GlcNAc(b1-3)Gal(b1-4)GlcNAc
Procedure, shortened: as §1

[22] = molecular target: Neu5Ac(a2-3)Gal(b1-4)GlcNAc(b1-3)Gal(b1-4)GlcNAc(b1-2)Man(a1-3)[Neu5Ac(a2-3)Gal(b1-4)GlcNAc(b1-3)Gal(b1-4)GlcNAc(b1-2)Man(a1-6)]Man(b1-4)GlcNAc(b1-4)GlcNAc
Procedure, shortened: as §1

[23] = molecular target: Neu5Ac(a2-3)Gal(b1-4)GlcNAc(b1-3)Gal(b1-4)GlcNAc(b1-3)Gal(b1-4)GlcNAc
Procedure, shortened: as §1

[24] = molecular target: Neu5Ac(a2-3)Gal(b1-4)GlcNAc(b1-3)Gal(b1-4)GlcNAc(b1-3)Gal(b1-4)GlcNAc(b1-2)Man(a1-3)[Neu5Ac(a2-3)Gal(b1-4)GlcNAc(b1-3)Gal(b1-4)GlcNAc(b1-3)Gal(b1-4)GlcNAc(b1-2)Man(a1-6)]GalNAc
Procedure, shortened: as §1

[25] = molecular target: Neu5Ac(a2-3)Gal(b1-4)GlcNAc(b1-3)Gal(b1-4)GlcNAc(b1-3)GalNAc
Procedure, shortened: as §1

[26] = molecular target: Neu5Ac(a2-3)Gal(b1-4)GlcNAc(b1-3)Gal(b1-4)GlcNAc(b1-3)[Neu5Ac(a2-3)Gal(b1-4)GlcNAc(b1-3)Gal(b1-4)GlcNAc(b1-6)]GalNAc
Procedure, shortened: as §1

[27] = molecular target: Neu5Ac(a2-3)Gal(b1-4)GlcNAc(b1-3)Gal(b1-4)GlcNAc(b1-6)[Gal(b1-3)]GalNAc
Procedure, shortened: as §1

[28] = molecular target: Neu5Ac(a2-3)Gal(b1-4)GlcNAc(b1-3)Gal(b1-4)[Fuc(a1-3)]GlcNAc
Procedure, shortened: as §1

[29] = molecular target: Neu5Ac(a2-3)Gal(b1-4)GlcNAc(b1-3)GalNAc
Procedure, shortened: as §1

[30] = molecular target: Neu5Ac(a2-3)Gal(b1-4)GlcNAc(b1-3)[Neu5Ac(a2-3)Gal(b1-4)GlcNAc(b1-6)]GalNAc
Procedure, shortened: as §1

[31] = molecular target: Neu5Ac(a2-3)Gal(b1-4)GlcNAc(b1-6)GalNAc
Procedure, shortened: as §1

[32] = molecular target: Neu5Ac(a2-3)Gal(b1-4)GlcNAc(b1-6)[Gal(b1-3)]GalNAc
Procedure, shortened: as §1

[33] = molecular target: Neu5Ac(a2-3)Gal(b1-4)GlcNAc(b1-6)[Neu5Ac(a2-3)Gal(b1-3)]GalNAc
Procedure, shortened: as §1

[34] = molecular target: Neu5Ac(a2-3)Gal(b1-4)GlcNAc6S
Procedure, shortened: as §1

[35] = molecular target: Neu5Ac(a2-3)Gal(b1-4)[Fuc(a1-3)]GlcNAc
Procedure, shortened: as §1

[36] = molecular target: Neu5Ac(a2-3)Gal(b1-4)[Fuc(a1-3)]GlcNAc(b1-2)Man
Procedure, shortened: as §1

[37] = molecular target: Neu5Ac(a2-3)Gal(b1-4)[Fuc(a1-3)]GlcNAc(b1-3)Gal
Procedure, shortened: as §1

[38] = molecular target: Neu5Ac(a2-3)Gal(b1-4)[Fuc(a1-3)]GlcNAc(b1-3)Gal(b1-4)GlcNAc
Procedure, shortened: as §1

[39] = molecular target: Neu5Ac(a2-3)Gal(b1-4)[Fuc(a1-3)]GlcNAc(b1-3)Gal(b1-4)[Fuc(a1-3)]GlcNAc(b1-3)Gal(b1-4)[Fuc(a1-3)]GlcNAc
Procedure, shortened: as §1

[40] = molecular target: Neu5Ac(a2-3)Gal(b1-4)[Fuc(a1-3)]GlcNAc(b1-3)GalNAc
Procedure, shortened: as §1

[41] = molecular target: Neu5Ac(a2-3)Gal(b1-4)[Fuc(a1-3)]GlcNAc(b1-6)[Gal(b1-3)]GalNAc
Procedure, shortened: as §1

[42] = molecular target: Neu5Ac(a2-3)Gal(b1-4)[Fuc(a1-3)]GlcNAc(b1-6)[Neu5Ac(a2-3)Gal(b1-3)]GalNAc
Procedure, shortened: as §1

[43] = molecular target: Neu5Ac(a2-3)Gal(b1-4)[Fuc(a1-3)]GlcNAc6S
Procedure, shortened: as §1

[44] = molecular target: Neu5Ac(a2-3)Gal6S(b1-4)GlcNAc
Procedure, shortened: as §1

B1: CVN-E41G (protein)
chain: MHHHHHHENLYFQSGNFSQACYNSAIQGSVLTSTCIRTNGGYNTSSIDLNSVIGNVDGSLKWQGSNFIETCRNTQLAGSSELAAECKTRAQQFVSTKINLDDHIAAIDGTLKYE
B1 was tested, and the “glycan array binding signal (z-score)” value [1] was -0.146, the “glycan array binding signal (z-score)” value [2] was -0.165 and the “glycan array binding signal (z-score)” value [3] was -0.158. For the same binder, the “glycan array binding signal (z-score)” value [4] was -0.048, the “glycan array binding signal (z-score)” value [5] was 0.001 and the “glycan array binding signal (z-score)” value [6] was -0.159. The “glycan array binding signal (z-score)” value [7] was -0.142, the “glycan array binding signal (z-score)” value [8] was -0.162 and the “glycan array binding signal (z-score)” value [9] was -0.135. The “glycan array binding signal (z-score)” value (Neu5Ac(a2-3)Gal(b1-4)Glc) was -0.122, the “glycan array binding signal (z-score)” value [10] was -0.167 and the “glycan array binding signal (z-score)” value [11] was 0.006. The “glycan array binding signal (z-score)” value [12] was -0.172, the “glycan array binding signal (z-score)” value [13] was -0.16 and the “glycan array binding signal (z-score)” value [14] was -0.172. The “glycan array binding signal (z-score)” value [15] was -0.142, the “glycan array binding signal (z-score)” value [16] was -0.18 and the “glycan array binding signal (z-score)” value [17] was -0.174. The “glycan array binding signal (z-score)” value [18] was -0.068, the “glycan array binding signal (z-score)” value [19] was -0.175 and the “glycan array binding signal (z-score)” value [20] was -0.178. The “glycan array binding signal (z-score)” value [21] was -0.168, the “glycan array binding signal (z-score)” value [22] was -0.059 and the “glycan array binding signal (z-score)” value [23] was -0.156. For the same binder, the “glycan array binding signal (z-score)” value [24] was 0.008, the “glycan array binding signal (z-score)” value [25] was -0.153 and the “glycan array binding signal (z-score)” value [26] was -0.126. The “glycan array binding signal (z-score)” value [27] was -0.146, the “glycan array binding signal (z-score)” value [28] was -0.177 and the “glycan array binding signal (z-score)” value [29] was -0.153. For the same binder, the “glycan array binding signal (z-score)” value [30] was -0.113, the “glycan array binding signal (z-score)” value [31] was -0.097 and the “glycan array binding signal (z-score)” value [32] was 0.198. The “glycan array binding signal (z-score)” value [33] was -0.174, the “glycan array binding signal (z-score)” value [34] was -0.145 and the “glycan array binding signal (z-score)” value [35] was -0.179. The “glycan array binding signal (z-score)” value [36] was -0.128, the “glycan array binding signal (z-score)” value [37] was -0.183 and the “glycan array binding signal (z-score)” value [38] was -0.158. For the same binder, the “glycan array binding signal (z-score)” value [39] was -0.063, the “glycan array binding signal (z-score)” value [40] was -0.13 and the “glycan array binding signal (z-score)” value [41] was -0.135. For the same binder, the “glycan array binding signal (z-score)” value [42] was -0.109, the “glycan array binding signal (z-score)” value [43] was -0.157 and the “glycan array binding signal (z-score)” value [44] was -0.171.
